Test results from the supplement of paper PMC3334620.
Whole data set: some 33,000 sequences, median “E-score (-0.5 to 0.5)” near -0.043, cut for the highest 2% near 0.37. Some of the results follow.

Target: T1, Upc2 (UniProt Q12151)
T1 sequence: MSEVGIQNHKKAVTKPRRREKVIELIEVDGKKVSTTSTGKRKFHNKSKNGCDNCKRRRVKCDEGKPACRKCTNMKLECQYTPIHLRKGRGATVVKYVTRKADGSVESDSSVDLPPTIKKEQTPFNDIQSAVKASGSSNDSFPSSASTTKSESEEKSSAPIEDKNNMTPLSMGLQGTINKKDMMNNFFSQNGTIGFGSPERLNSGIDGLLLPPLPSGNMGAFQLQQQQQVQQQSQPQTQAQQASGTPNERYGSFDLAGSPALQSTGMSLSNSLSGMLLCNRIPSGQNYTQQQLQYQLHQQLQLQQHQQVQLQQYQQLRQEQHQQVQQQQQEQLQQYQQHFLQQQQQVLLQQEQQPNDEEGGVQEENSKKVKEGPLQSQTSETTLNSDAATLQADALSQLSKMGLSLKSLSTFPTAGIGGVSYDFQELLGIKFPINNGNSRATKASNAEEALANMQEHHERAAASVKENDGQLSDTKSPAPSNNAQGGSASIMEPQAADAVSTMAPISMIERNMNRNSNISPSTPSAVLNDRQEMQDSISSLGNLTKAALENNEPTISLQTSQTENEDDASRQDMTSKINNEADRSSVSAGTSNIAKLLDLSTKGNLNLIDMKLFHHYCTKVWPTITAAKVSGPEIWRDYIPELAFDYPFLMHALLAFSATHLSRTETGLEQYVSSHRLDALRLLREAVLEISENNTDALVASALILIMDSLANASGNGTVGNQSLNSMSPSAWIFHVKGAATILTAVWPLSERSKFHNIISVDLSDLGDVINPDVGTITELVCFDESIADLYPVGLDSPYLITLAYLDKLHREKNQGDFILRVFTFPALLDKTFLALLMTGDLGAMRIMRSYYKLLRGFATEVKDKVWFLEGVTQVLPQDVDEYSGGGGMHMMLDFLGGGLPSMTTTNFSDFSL
Experiment: PBM E-score (8-mer binding enrichment) (E-score (-0.5 to 0.5)); higher = stronger / more preferred TF binding; most listed sequences are background and not binding sites
Settings: protein concentration: 200 nM; construct: GST-full length
Procedure, shortened: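 For each ungapped eight-base word taken together with its reverse complement, the Universal PBM Analysis Suite assigned an E-score. Binding data came from GST-tagged yeast transcription factors, applied at about 100-200 nM, on universal all-10-mer Agilent arrays made double-stranded by primer extension. Fluorescent anti-GST marked bound protein, and scans were normalised with masliner.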

Sequence | PBM E-score
ATGGTAGC | 0.124
GAGGCACA | -0.218
AGGAGGCG | -0.326
TAAGCGTA | 0.209
CGCGGTTC | 0.298
CCTGCTAC | -0.0996
ACAGAACA | 0.0969
ACTCCGCA | -0.165
ATCACAGC | -0.188
AATGGGCC | -0.0829
CCCTGATC | 0.146
CTGTCATA | -0.0549
ACCGGTCG | 0.251
CCCATCAC | -0.219
CGAGAAGC | 0.129
GCGGAGTA | -0.0716
ACCCGGGA | -0.0342
CACAATCG | 0.196
GAAACAGC | -0.0577
CCGCTAAC | 0.048
TAGGCGCA | -0.14
CCATGGCA | -0.16
GGAGTTAC | -0.0562
GACGATTA | 0.0842
CCGACCCG | 0.15

Sequence | PBM E-score
GAAGACGC | -0.0866
CACCCCGG | -0.245
AATCACAC | -0.081
AGGTTACT | -0.141
CAATATCA | -0.0845
GTCAGAAC | 0.00961
CAGCGGAA | -0.0604
CTCAACAG | -0.262
CTATCTTA | -0.18
GCTAAATA | -0.0133
CCGGGTGC | -0.329
CAAATGTA | 0.105
GCCCATGA | -0.128
GCACGCCC | -0.0756
GAGTTTGC | -0.107
CTAAGCTC | -0.201
ACGGCCCT | 0.237
ATGGTGCG | 0.0453
CACTTAAG | -0.0164
AATGGCAG | -0.136
ACATAACA | 0.0799
AGGTGACA | -0.192
ATATTTGA | -0.00169
ATGCCTTA | 0.036
AGTCACCA | -0.215

Sequence | PBM E-score
AATCATGT | -0.00779
GGTCCTCA | -0.0879
GAGGGGAC | -0.152
CGATTAAC | 0.198
CATTACCG | -0.0304
ACAGACCG | 0.0177
ACACATCA | -0.0896
CCCGTCTA | -0.111
AGGATTCG | -0.0399
AGCTTCGA | -0.185
CATGAGTA | -0.0577
TCTGGACA | -0.0399
ACTGTCTC | -0.0331
ACTTAAGT | -0.0569
ATTGTGCG | 0.129
ACAGAGCG | -0.0821
CGCGGCCC | -0.0751
GAGCTGAC | -0.111
CTTTCATC | -0.298
TCATACGA | 0.469
CGTTAGGA | 0.129
CGGTTTAA | 0.218
CACTATTA | 0.00078
CATCAGAC | -0.0987
ACGCCCAT | 0.0847

Sequence | PBM E-score
ACCCATGG | -0.276
CGATATTA | 0.176
CCATGAGG | -0.219
GCAGAAAA | 0.227
CGGAAGAC | 0.00447
CTTTAGCA | -0.25
GCCTTAAA | 0.109
ACATGTGG | -0.168
AAGTTGGA | -0.048
ACCGTGCA | -0.0181
CCAGAATA | -0.00693
AAAAACTC | -0.0151
AACATCTA | -0.118
CCAACTAA | -0.114
CACGGTCC | -0.146
CCACTTCA | -0.1
ATTACTGC | -0.0794
GTAGAGAA | 0.185
AGCTCCCA | -0.0529
GCGATCGA | 0.166
ATCAAACG | 0.351
ACTTCGGC | -0.142
ATTGAAAA | 0.0582
ATCCCGAT | -0.122
GCTAATTA | 0.159

Sequence | PBM E-score
CAGATTCA | -0.241
ACCCTTCC | -0.211
GTGGTAAA | -0.0449
GATTCTGC | -0.114
AGGAAATC | 0.12
ACGTTGCG | 0.0848
CCACAAAA | -0.0162
CCCAACAC | -0.164
ACTATAAT | -0.0414
CACTATGA | -0.216
AGACTCTG | -0.0319
AAAAATGT | 0.0651
GCCATAGC | -0.242
CCTGTAAC | 0.0858
AAATCATC | -0.205
GTTAGTGA | 0.0421
AGAATTGA | 0.0868
ACGTGTGC | 0.031
AAAGTCGG | 0.0107
AATGATCC | -0.0669
AGAACAAG | 0.0872
AAGTAGCT | -0.0689
GTTGTATA | 0.0959
AAGAGGCA | 0.107
CCAAGCAA | -0.138

Sequence | PBM E-score
CACGTGCC | -0.208
AGTTAGAG | -0.0903
CTGTTTCC | -0.202
AGCGGAAC | 0.187
ATAGCGGA | -0.0512
GGACAATA | -0.17
CTAGCTTA | -0.129
AGAAAAAT | -0.0298
ACTCGAGG | -0.117
CCTTGCCG | -0.166
GACAGCGC | 0.0234
TTATCCAA | 0.0246
GACGGAAC | 0.00085
AGCAGTGG | -0.145
AGGTCTGA | 0.0577
CTGCGACC | -0.164
AACGCCGA | 0.25
CCCTTGCA | -0.222
GGAGACGA | 0.003
CATACGCG | 0.313
GCCATGAA | -0.0794
ATGCGGCC | -0.128
GTCAGACA | -0.166
AATTGCTG | 0.132
ATACCAAC | 0.0132

Sequence | PBM E-score
ACACGGCT | -0.11
GATCGTTA | 0.291
CCAGGCGA | -0.324
ATCAGCTG | 0.00812
CTTCCGAA | 0.0636
TCCTAAAA | 0.048
CACCAGAA | -0.0514
AGGACACA | -0.0315
GATGACGA | 0.0943
CGGCCACC | -0.0618
TAACCCCA | -0.212
GCATCGAC | -0.117
CCAATGAC | -0.259
AGGAATAC | -0.0233
TGGGGCAA | -0.225
CGGGTATC | 0.135
GCGGTCGA | 0.186
ATACACAG | -0.117
GGGTTATA | 0.0157
CATAAAGC | -0.12
CGCCAGAA | 0.13
CATTCCAA | -0.0414
